{
  "source": "PubChem BioAssay AID2675",
  "about": "(National Center for Advancing Translational Sciences (NCATS), 2010)",
  "note": "Out of some 280,000 compounds screened, about 100 (0.036%) were called active. The inconclusive results got no clear call from the source; some entries with a clear call stand among them for comparison. Calls follow the shape of the dose curve; as a rule, active = well fitted inhibition curve with a large enough effect in the signal ratio, with a control signal flat (not every such curve was filed as active); inconclusive = small, poorly fitted or top-dose-only effect, or effect the other way, or a change in a side signal; inactive = no such curve, though single readings can be large or run the other way; the % refers to the signal ratio. A potency beside an inconclusive call is a rough fit, not a confirmed value. A note “side channel” means that the fit belongs to a control or component signal, not to the main read-out. % is scaled to controls: 0 for no effect and ±100 for the full control effect; potency is read from the fitted curve at half-maximal effect; tags tell the direction and shape of the fitted curve or compound fluorescence and quenching.",
  "data": [
    {"biological_target": "Muscleblind-like protein 1 (Homo sapiens) (UniProt Q9NR56)", "sequence (Q9NR56 whole entry, looked up)": "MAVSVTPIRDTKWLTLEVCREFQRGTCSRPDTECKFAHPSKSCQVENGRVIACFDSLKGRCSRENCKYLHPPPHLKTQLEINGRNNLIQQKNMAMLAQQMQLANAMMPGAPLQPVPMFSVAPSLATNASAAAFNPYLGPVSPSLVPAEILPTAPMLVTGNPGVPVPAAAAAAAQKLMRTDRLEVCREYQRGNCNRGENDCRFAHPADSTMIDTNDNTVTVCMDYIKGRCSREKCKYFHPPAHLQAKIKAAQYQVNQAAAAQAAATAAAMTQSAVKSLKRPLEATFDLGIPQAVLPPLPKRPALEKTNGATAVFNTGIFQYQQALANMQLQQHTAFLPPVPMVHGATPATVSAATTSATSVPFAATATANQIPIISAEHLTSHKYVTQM", "assay": "qHTS Assay for Inhibitors of MBNL1-poly(CUG) RNA binding", "conditions": "TR-FRET MBNL1-His/biotin-(CUG)12 binding, 665/545 ratio; activity change, negative = inhibition: at 57.5 µM (top of the series)", "how_it_was_run": "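Compounds (final 92 nM to 58 uM) are added to His-tagged MBNL1 and biotin-(CUG)12, then terbium anti-His antibody and streptavidin-XL665 (5 nM final). After 60 min at room temperature, the 665/545 nm ratio is read.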", "values": [
      {"smiles": "CN(C)c1cccc2c1C(=O)c1ccccc1C2=O", "Potency": "inconclusive: 3.98 µM [quencher, side channel, partial curve]"},
      {"smiles": "Cc1nc(CCNC(=O)Cc2ccc(F)cc2)cs1", "Potency": "inconclusive: 3.98 µM [quencher, side channel, single point]"},
      {"smiles": "CCN1C(=O)/C(=C\\N2CCCCCC2)SC1=S", "Potency": "inconclusive: 31.6 µM [quencher, side channel, partial curve]"},
      {"smiles": "Cc1c(C(=O)NCc2ccc3c(c2)OCO3)oc2ccc(S(=O)(=O)N3CCCCCC3)cc12", "activity change, negative = inhibition": "inactive: 6.7%"},
      {"smiles": "O=C(CSc1nc2ccccc2s1)Nc1cc(S(=O)(=O)N2CCOCC2)ccc1O", "Potency": "inconclusive: 126 µM [inhibitor, partial curve]"},
      {"smiles": "O=C1NC(=O)/C(=C\\c2ccc(Oc3ccc([N+](=O)[O-])cn3)cc2)S1", "Potency": "inconclusive: 14.1 µM [quencher, partial curve]"},
      {"smiles": "Clc1ccc2nnnc(-c3ccccc3)c2c1", "Potency": "inconclusive: 15.8 µM [quencher, side channel, partial curve]"},
      {"smiles": "COC(=O)c1ccc2nc(C)cc(Nc3ccc(N(C)C)cc3)c2c1", "Potency": "inconclusive: 15.8 µM [quencher, side channel, partial curve]"},
      {"smiles": "COc1ccccc1C(=O)NC(=S)NNC(=O)c1sc2ccccc2c1Cl", "Potency": "inconclusive: 28.2 µM [fluorescent, side channel, single point]"},
      {"smiles": "COc1cc(C(=O)OCn2nnc3ccccc3c2=O)cc(OC)c1OC", "activity change, negative = inhibition": "inactive: 12%"},
      {"smiles": "CCOC(=O)c1cnc2c(OC)cccc2c1N1CCN(c2ccccn2)CC1", "Potency": "inconclusive: 20 µM [quencher, side channel, single point]"},
      {"smiles": "NCCNc1ccc(C(=O)N2c3ccccc3Sc3ccccc32)cc1[N+](=O)[O-]", "Potency": "inconclusive: 17.8 µM [quencher, side channel, partial curve]"},
      {"smiles": "C[C@@H]1NC(=O)c2cc([N+](=O)[O-])cc(I)c2NCC[C@@H](C(N)=O)NC(=O)[C@H](CC(N)=O)NC1=O", "Potency": "inconclusive: 17.8 µM [quencher, side channel, partial curve]"},
      {"smiles": "CC(=O)Nc1cc2c(cc1[N+](=O)[O-])OCCO2", "Potency": "inconclusive: 12.6 µM [quencher, side channel, partial curve]"},
      {"smiles": "COc1ccc(COC(=O)c2ccc(Cl)c(S(=O)(=O)N3CCOCC3)c2)cc1F", "activity change, negative = inhibition": "inactive: -3.53%"},
      {"smiles": "COc1ccccc1CNC(=O)CCNS(=O)(=O)c1cccc2nonc12", "Potency": "inconclusive: 14.1 µM [quencher, side channel, partial curve]"},
      {"smiles": "O=[N+]([O-])c1ccc2n[nH]nc2c1", "Potency": "inconclusive: 31.6 µM [quencher, side channel, partial curve]"},
      {"smiles": "O=C(C[n+]1cccc2ccccc21)c1ccccc1", "Potency": "inconclusive: 10 µM [quencher, side channel, partial curve]"},
      {"smiles": "CC(=O)N1CCOc2ccc(S(=O)(=O)N3CCCCC3)cc21", "activity change, negative = inhibition": "inactive: 2.78%"},
      {"smiles": "COc1ccc(NS(=O)(=O)c2cccc3nsnc23)cc1OC", "Potency": "inconclusive: 14.1 µM [quencher, side channel, partial curve]"},
      {"smiles": "COc1ccccc1CNC(=O)CN1C(=O)c2cccc(N)c2C1=O", "Potency": "inconclusive: 17.8 µM [quencher, partial curve]"},
      {"smiles": "N#C/C(=C\\c1ccc(N2CCOCC2)o1)C(=O)NCC1CCCO1", "note": "(stereo unspecified)", "activity change, negative = inhibition": "inactive: -11.2%"},
      {"smiles": "CN(C)/N=C/c1ccc(Sc2ccccc2[N+](=O)[O-])o1", "Potency": "inconclusive: 25.1 µM [quencher, side channel, partial curve]"},
      {"smiles": "O=C(COC(=O)c1ccc[nH]c1=O)NC1CCCCC1", "activity change, negative = inhibition": "inactive: -12.8%"},
      {"smiles": "COC(=O)c1cc(=O)c2c([N+](=O)[O-])ccc(OC)c2o1", "Potency": "inconclusive: 10 µM [quencher, side channel, partial curve]"},
      {"smiles": "C/[N+]([O-])=C/c1c(OCc2ccccc2)ccc2ccccc12", "Potency": "inconclusive: 15.8 µM [quencher, side channel, partial curve]"},
      {"smiles": "O=C(Nc1ccccc1F)C1CCN(S(=O)(=O)c2cccc3nonc23)CC1", "Potency": "inconclusive: 3.16 µM [quencher, side channel, full curve]"},
      {"smiles": "C=CCC(C(=O)OC)(C(=O)OC)c1ccc([N+](=O)[O-])cn1", "Potency": "inconclusive: 12.6 µM [quencher, side channel, partial curve]"},
      {"smiles": "O=C(/C=C/c1ccco1)Nc1cccc(S(=O)(=O)N2CCOCC2)c1", "Potency": "inconclusive: 7.08 µM [quencher, side channel, partial curve]"},
      {"smiles": "Cc1cc(C)n(CCC(=O)N/N=C/c2ccc(O)cc2O)n1", "activity change, negative = inhibition": "inactive: 9.25%"},
      {"smiles": "C=CCOC(=O)Nc1c(C(=O)OC)[nH]c2ccc(Cl)cc12", "activity change, negative = inhibition": "inactive: -7.19%"},
      {"smiles": "CC(C)=CCN1CCN(Cc2cnc(C)s2)CC1CCO", "note": "(stereo unspecified)", "Potency": "inconclusive: 14.1 µM [quencher, side channel, partial curve]"},
      {"smiles": "O=C(O)CC12CC3CC(C1)CC(n1ncc(N4CCC5(CC4)OCCO5)c(Cl)c1=O)(C3)C2", "Potency": "inconclusive: 17.8 µM [quencher, side channel, partial curve]"},
      {"smiles": "COc1ccc(C2=NN(C(=O)CCC(=O)O)C(c3cccs3)C2)cc1", "note": "(stereo unspecified)", "Potency": "inconclusive: 28.2 µM [quencher, side channel, partial curve]"},
      {"smiles": "CCOc1ccc(NC(=O)c2cccnc2Cl)c([N+](=O)[O-])c1", "Potency": "inconclusive: 4.47 µM [quencher, side channel, single point]"},
      {"smiles": "O=C(Nc1ccc(N2CCOCC2)nc1)c1ccc(Cl)cc1", "activity change, negative = inhibition": "inactive: -0.0435%"},
      {"smiles": "O=C(NCCO)Nc1ccc2nc(-c3ccco3)c(-c3ccco3)nc2c1", "Potency": "inconclusive: 15.8 µM [quencher, side channel, partial curve]"},
      {"smiles": "CCOC(=O)C1CCN(c2ccc(C(=O)O)cc2[N+](=O)[O-])CC1", "Potency": "inconclusive: 22.4 µM [quencher, partial curve]"},
      {"smiles": "O=C(COC(=O)c1cc(=O)[nH]c2ccccc12)NC1CCCC1", "Potency": "inconclusive: 20 µM [quencher, side channel, partial curve]"},
      {"smiles": "C=CCn1cc(/C=C2\\SC(N3CCOCC3)=NC2=O)c2ccccc21", "Potency": "inconclusive: 31.6 µM [quencher, side channel, single point]"},
      {"smiles": "CCOC(=O)n1c(=O)oc2ccc(Cl)cc21", "activity change, negative = inhibition": "inactive: 17.8%"},
      {"smiles": "Nc1c(C(=O)NCC2CCCO2)sc(=S)n1-c1ccccc1", "note": "(stereo unspecified)", "Potency": "inconclusive: 20 µM [quencher, side channel, partial curve]"},
      {"smiles": "Cc1ccc(/C=N/NC(=O)C(C)Oc2ccccc2[N+](=O)[O-])s1", "note": "(stereo unspecified)", "Potency": "inconclusive: 12.6 µM [quencher, side channel, partial curve]"},
      {"smiles": "Cc1cccc(NC(=S)NCCSc2ccc(Cl)cc2)c1", "activity change, negative = inhibition": "inactive: -1.64%"},
      {"smiles": "O=[N+]([O-])c1ccc(OCCCCN2CCCCC2)cc1", "Potency": "inconclusive: 39.8 µM [activator, single point]"},
      {"smiles": "CCOC(=O)C1=NN(c2cccc(Cl)c2)C2=NC(C)=C(C(=O)OC)C(c3cccs3)N12", "note": "(stereo unspecified)", "Potency": "inconclusive: 39.8 µM [quencher, side channel, single point]"},
      {"smiles": "Cc1ccc(C(=O)N/N=C\\c2ccc[nH]2)cc1[N+](=O)[O-]", "Potency": "inconclusive: 3.16 µM [quencher, side channel, full curve, poor fit]"},
      {"smiles": "COc1ccc(CN2CCc3ccc(NC(=O)c4ccncc4)cc3C2)c(F)c1", "Potency": "inconclusive: 28.2 µM [quencher, side channel, single point]"},
      {"smiles": "CCSc1nnc(NC(=O)CSc2nnc(CNC(=O)c3cc(OC)c(OC)c(OC)c3)o2)s1", "Potency": "inconclusive: 79.4 µM [inhibitor, single point]"},
      {"smiles": "CCOC(=O)c1ccc2ncc(C(=O)OCC)c(Nc3ccc(N4CCOCC4)cc3)c2c1", "Potency": "inconclusive: 39.8 µM [fluorescent, side channel, single point]"},
      {"smiles": "Cn1c(=O)c(=O)n(C)c2cc(N3CCCCC3)c(NS(=O)(=O)c3ccc([N+](=O)[O-])cc3)cc21", "Potency": "inconclusive: 10 µM [quencher, partial curve]"},
      {"smiles": "COc1ccccc1CC(=O)Nc1ccc([N+](=O)[O-])cc1OC", "Potency": "inconclusive: 22.4 µM [quencher, side channel, partial curve, poor fit]"},
      {"smiles": "COC1=C(Nc2ccccc2)C(=O)c2ccccc2C1=O", "Potency": "inconclusive: 7.94 µM [quencher, side channel, partial curve]"},
      {"smiles": "CN1CCC(=NOc2ccc([N+](=O)[O-])cc2)CC1", "Potency": "inconclusive: 17.8 µM [quencher, side channel, partial curve]"},
      {"smiles": "O=C(Nc1ccc(F)cc1)c1cccc2c1C(=O)N(Cc1ccccn1)C2", "Potency": "inconclusive: 0.158 µM [quencher, side channel, full curve, poor fit]"},
      {"smiles": "O=[N+]([O-])c1c(Nc2ccccn2)cc(Cl)c2nonc12", "Potency": "inconclusive: 14.1 µM [quencher, side channel, partial curve]"},
      {"smiles": "Cc1ccc(-c2cc(-c3ccccc3)c(C#N)c(N)n2)o1", "Potency": "inconclusive: 3.55 µM [quencher, side channel, full curve, poor fit]"},
      {"smiles": "Cc1ccc(S(=O)(=O)Oc2ccccc2/C=N/Nc2ccc(C(=O)O)cc2)cc1", "activity change, negative = inhibition": "inactive: -5.78%"},
      {"smiles": "CCn1c(SCC(=O)Nc2nc(C)c(C)s2)nnc1-c1ccco1", "activity change, negative = inhibition": "inactive: 4.14%"},
      {"smiles": "O=C1c2ccccc2C(=O)N1c1ccc(Cl)cn1", "Potency": "inconclusive: 28.2 µM [quencher, side channel, single point]"},
      {"smiles": "CCOc1cc2nc3c4ccccc4n(C)c3nc2cc1OCC", "Potency": "inconclusive: 100 µM [inhibitor, single point]"}
    ]}
  ]
}
